Experimental data as given in the RNAGym collection of RNA variant scans (doi:10.1093/nar/gkz1192).
The source gives no read counts; variants with many changes may rest on few reads.

B1: CPEB3 Ribozyme (parent)
chain: UAACAGGGGGCCACAGCAGAAGCGUUCACGUCGCAGCCCCUGUCAGAUUCUGGUGAAUCUGCGAAUUCUGCUGUAUAUCUC

Variants of: B1
Test: self-cleavage, relative activity (ratio to wild type); higher = more cleavage; in vitro, sequencing
How it was run: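 Relative activity compares each variant's cleaved/total read fraction with that of the unmutated ribozyme. To get these fractions, barcoded CPEB3 ribozyme libraries from rounds of error-prone PCR were transcribed with T7 RNA polymerase for 5 hours at 37°C and then given 15 min of DNase I treatment before EDTA was added. The RNAs were reverse transcribed with template switching and sequenced on Illumina, and DNA sequencing linked barcodes to variants. A minimum of 5 reads applied, and three batches were averaged.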

| Variant | self-cleavage |
| --- | --- |
| UAACAGGGGGCCACAGCAGAAGCGUACACGUCGUAGCCCCUGACGGAUUCUGGUGAAUCUGCGAAUUCUGCAGUAUAUCUC [U26A C34U U43A A45G U72A] | 0.06 |
| UAACAGGGGGCCACAGCAGAAGCGGUCACGUCGCUGCCCCUGUCAUAUUCUGGUGAAACUGCGAAUUCUGCUGUAUACUUC [U25G A35U G46U U58A U78C C79U] | 0.06 |
| UAACAGGGGGCCACAGCAGAAGCGUACACGUCGCUGCCCCUGUCAGAUUCAGGUGGAUCUGCGAAUUCUGCUGUAUAUCUC [U26A A35U U51A A56G] | 0.31 |
| UAACAGGGGGCCACAGCAGAAGCGUACACGUCGCAGCCUCUGUCAGAUUCGGGUGAAUCUGCGAAUUCUGCCGUAUAUCUC [U26A C39U U51G U72C] | 0.5 |
| UAACAGGGGGCCACAGCAGAAGCGUACACGUCGCGGCCCCUGUCAGCUUCUGGUGAAUCUGCAAAUUCUGCUGAAUAUCUC [U26A A35G A47C G63A U74A] | 1.15 |
| UAACAGGGGGCCACAGCAGAAGCGUACACGUCGAGGCCCCUGUCAGAUCCUGGUGAAUCCGCGAAUUCUGCUGUAUAUCUC [U26A C34A A35G U49C U60C] | 0.33 |
| UAACAGGGGGCCACAGCAGAAGCGUACACGUCGCAGCCUCUGUCAGAUUCUGUUGAAUCUGCGAAUUCUGCUGUAUAUCUC [U26A C39U G53U] | 0.66 |
| UAACAGGGGGCCACAGCAGAAGCGUACACGUCGCAGCCCCUGUCAGAUUCUGGUGAAUCUGUGAAUUCUGCUGUAUACCUC [U26A C62U U78C] | 0.14 |
| UAACAGGGGGCCACAGCAGAAGCGUACACGUCGCAGCCCCUGUCAGAUUCUGGUGAAUCUGUGAAUUCUGCUGUAUAACUC [U26A C62U U78A] | 0.32 |
| UAACAGGGGGCCACAGCAGAAGCGUACACGUCGCAGCCCCUGUCAGAUUCUGGUGGAUCUGCGAAUUCUGCCGUAUAUCUC [U26A A56G U72C] | 0.56 |
| UAACAGGGGGCCACAGCAGAAGCGGUCACGUCGCAGCCCCUGUCAGAUUCUGGUGAAUCUGCGAAUUCUGCAGUGUAUCUC [U25G U72A A75G] | 0.28 |
| UAACAGGGGGCCACAGCAGAAGCGGUCGCGUCGCAGCCCCUGUCAGAUCCUGGUGAAUCUGCGAAUUCUGCUGUAUACCUC [U25G A28G U49C U78C] | 0.08 |
| UAACAGGGGGCCACAGCAGAAGCGUACACGUCGCAGCCCCUGUCAGAUUCUGGUGAAUCUGUGAGUUCUGCUGUAUAUCUC [U26A C62U A65G] | 0.29 |
| UAACAGGGGGCCACAGCAGAAGCGUACACGUCGCAGCCCCUGUCAGAUUAUGGUGAAUCUGCGAAUUCUGCUGUAUAUCUU [U26A C50A C81U] | 0.78 |
| UAACAGGGGGCCACAGCAGAAGCGUACACGUCGCUGCCCCUGUCAGAUUCUGGCGAAUCUGCGAAUUCUGCUGUAUAUCUC [U26A A35U U54C] | 0.4 |
| UAACAGGGGGCCACAGCAGAAGCGGUCACGGCGCAGCCCCUGACAGAUUCUGGUGGAUCUGCGAAUUCUGCUGUAUAUCUC [U25G U31G U43A A56G] | 0.1 |
| UAACAGGGGGCCACAGCAGAAGCGGUCACGUCGCAGCCCCUGACAGAUUCUGGUGAAUCUGCGAAUUCUGCCGUAUAUCUC [U25G U43A U72C] | 0.33 |

| Variant | self-cleavage |
| --- | --- |
| UAACAGGGGGCCACAGCAGAAGCGUACGCGUCGCAGCCCCUGUCAGAUUCUGGUGAAUCUGCGAAUUCUGCUGCAUAUCUC [U26A A28G U74C] | 0.77 |
| UAACAGGGGGCCACAGCAGAAGCGUACACGUCGCAGCCCCUGUCAGGCUCUGGUGCAUCUGCGAAUUCAGUUGUAUAUCUC [U26A A47G U48C A56C U69A C71U] | 0.19 |
| UAACAGGGGGCCACAGCAGAAGCGGUCACGUCGCAGCCCACGUCAGAUUCCGGUGAAUCUGCGAACUCUGCUGUAUAUCUC [U25G C40A U41C U51C U66C] | 0.08 |
| UAACAGGGGGCCACAGCAGAAGCGUACACGUCGCAGCCCCUUUCAGAUUCUGGUGAUUCUGCGAAUUCUGCUGUAUAUCUC [U26A G42U A57U] | 0.09 |
| UAACAGGGGGCCACAGCAGAAGCGGUCACGUCGCGGCCCCUGUCAGAUUCUGGUGAAUCUGCGAAUUCUGGUGUAUAUCUC [U25G A35G C71G] | 0.16 |
| UAACAGGGGGCCACAGCAGAAGCGUACACGUCGCAUCCCCAGUAAGAUUCUGGUGGAUCUGCGAGUUCUGCAGUAUAUCUC [U26A G36U U41A C44A A56G A65G U72A] | 0.04 |
| UAACAGGGGGCCACAGCAGAAGCGGUCACGUCGGAGCCCCUGUCAGAUUCAGGUGAAUCUGCGAAUUCUGCUGUAUAUCUC [U25G C34G U51A] | 0.17 |
| UAACAGGGGGCCACAGCAGAAGCGUACACGUCGCAGCCCCUGUCUGAUUCAGGUGAAUCUGCGAACUCUGCUGUAUAUCUC [U26A A45U U51A U66C] | 0.12 |
| UAACAGGGGGCCACAGCAGAAGCGUACACGUCGCAGCGCCUGCCAGAUUCUGGUGAAUCUGCGAAUUCUGCUGUAAAUCUC [U26A C38G U43C U76A] | 0.29 |
| UAACAGGGGGCCACAGCAGAAGCGUACACGUCGCAGCCUCUGCCAGAUUCUGGUGAAUCUGCGAAUUCUGCUGUAUGUCUC [U26A C39U U43C A77G] | 0.08 |
| UAACAGGGGGCCACAGCAGAAGCGUACACGUCGCUGCCCCUGCCAGAUCCCGGUGAAUGUGCGAAUUCUGCUGUAUAUCCC [U26A A35U U43C U49C U51C C59G U80C] | 0.16 |
| UAACAGGGGGCCACAGCAGAAGCGUACGCGUCGCAGCCCCUGUCAGAUUCUGGUGAAUCUGCGGAUUCUGCUGUAUAUCUC [U26A A28G A64G] | 0.29 |
| UAACAGGGGGCCACAGCAGAAGCGGUCGCGUCGCAGCCCCUGUCAGAUUCUGGUGAAUCUGCGAAUUCUGCUGUAUAUCCC [U25G A28G U80C] | 0.17 |
| UAACAGGGGGCCACAGCAGAAGCGUACACGUCGCACCCCCUGUCAGAUUCUGGUGAAUCAGCGAAUUCUGCUGUAUAUCUC [U26A G36C U60A] | 0.13 |
| UAACAGGGGGCCACAGCAGAAGCGGUCACGUCGCAGCCCCUGUCAGGUUCAGGUGAAUCUGCGAAUUCUGCUGUAUAUCUC [U25G A47G U51A] | 0.48 |
| UAACAGGGGGCCACAGCAGAAGCGUACACGUCGCAGCCCCUGUCGGAUCCUGGUGAAUCUGCGAAAUCUGCUGUAUAUCUC [U26A A45G U49C U66A] | 0.14 |
| UAACAGGGGGCCACAGCAGAAGCGUACACGUCGCAGCCCCUGUCAGGUUCUGGUGAAUCUGCGAAUUCUGCUGUAUACCUC [U26A A47G U78C] | 0.89 |
